The source gives no read counts; variants with many changes may rest on few reads.

B1: CPEB3 Ribozyme (parent)
chain: UAACAGGGGGCCACAGCAGAAGCGUUCACGUCGCAGCCCCUGUCAGAUUCUGGUGAAUCUGCGAAUUCUGCUGUAUAUCUC

The variants in this data set derive from B1. In words: self-cleavage, relative activity (ratio to wild type); higher = more cleavage; in vitro, sequencing. In short, it runs like this: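 Relative activity compares each variant's cleaved/total read fraction with that of the unmutated ribozyme. To get these fractions, barcoded CPEB3 ribozyme libraries from rounds of error-prone PCR were transcribed with T7 RNA polymerase for 5 hours at 37°C and then given 15 min of DNase I treatment before EDTA was added. The RNAs were reverse transcribed with template switching and sequenced on Illumina, and DNA sequencing linked barcodes to variants. A minimum of 5 reads applied, and three batches were averaged.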
As to UAACAGGGGGCCACAGCUGAAGCGUUCACGUCGCUGCCCCUGUCAGAUUCUGGUGAAUCUGCGAAUUCCGCUGAAUAUCCC [A18U A35U U69C U74A U80C], the self-cleavage amounted to 0.13. The result for UAACAGGGGGCCACAGCUGAAGCGUUCUCGUCGCAGCCCCUGUCAGAUUCUGGUGAAUCUGCGUAUUCUGCUGUAUAUCUC [A18U A28U A64U] reads 0.15; that for UAACAGGGGGCCACAGCUGAAGCGUUCUCGUCGCAGCCCCUGCCAGAUUCUGGUGAAUCUGCGAAUUCCGCUGUAUAUCUC [A18U A28U U43C U69C], 0.14; that for UAACAGGGGGCCACAGCUGAAGCGUUCUCGUCGCAGCCCCUGUCAGAUUCCGGUGGAUAUGCGAAUUCUGCUGUAUAUCUC [A18U A28U U51C A56G C59A], 0.11. With UAACAGGGGGCCACAGCUGAAGCGUUCGCGUCGCAGCCCCUGUCGGAUUCCUGUGAAUCUGUGAUUUCUGCUGUAUAUCUC [A18U A28G A45G U51C G52U C62U A65U], the self-cleavage came out at 0.08.

Turning to UAACAGGGGGCCACAGCUGAAGCGUUCCCGUCGCAGCCCCUGUCAGAUUCUGGUGAACCUGCGAAUACUGCUGCAUAUCUC [A18U A28C U58C U67A U74C], the self-cleavage came out at 0.11. The result for UAACAGGGGGCCACAGCUGAAGCGUUCACGUCGCGGCCCCUGACAGAUUCUGGUGAAUCUACGAAUUCUGCUGUAUAACUC [A18U A35G U43A G61A U78A] reads 0.53.

Regarding UAACAGGGGGCCACAGCUGAAGCGUUCGCGCCGCAGCCCCUGUCAGAUUCUGGUGAAUCUGCGAAUUCUGCUGUAUAUCUC [A18U A28G U31C], the self-cleavage was 0.22. The result for UAACAGGGGGCCACAGCUGAAGCGUUCACGUCGCGGCCCCGGUCAGAUUCUGGUGAAUCUGCGAAUUCUGCUGUAUAUCUC [A18U A35G U41G] reads 0.4; that for UAACAGGGGGCCACAGCUGAAGCGUUCACGUCGCGGACCCUGUCAGAUUCUGGUGGAUCUACGAAUUCUGCUGUAUAUCUC [A18U A35G C37A A56G G61A], 0.16.

As for UAACAGGGGGCCACAGCUGAAGCGUUCCCGUCGCAGCCCCUGUCAGAUUCAGGUGAAUCUGCGGAUUCUGCAGUAUAUUUC [A18U A28C U51A A64G U72A C79U], the self-cleavage is 0.06.

UAACAGGGGGCCACAGCUGAAGCGUUCUCGUCGCAGCCCCUGUCAGAUUCUGGUGAAUCUGCGAUUUCUGCUGUAUAUCUC [A18U A28U A65U]: the self-cleavage turned out to be 0.36. The same measure for UAACAGGGGGCCACAGCUGAAGCGUUCUCGCCGCAGCCCCUGUCAGAUUCUGGUGGAUCUGCGAAUUCUGCUGUAUAUCUC [A18U A28U U31C A56G]: 0.24. The same measure for UAACAGGGGGCCACAGCUGAAGCGUUCACGUCGCAGCCCCUGUCGGGUUCUGGUGAAUCUGCGAAUUCUGCUGUAUAUCUC [A18U A45G A47G]: 0.19; for UAACAGGGGGCCACAGCUGAAGCGUUCACGUCGCGGCCCCUGUCAGAUUCUGGUGAGCCUGCGAAUUCUGCUGUUUAUCUC [A18U A35G A57G U58C A75U]: 0.45; for UAACAGGGGGCCACAGCUGAAGCGUUCACGUCGCGGCCCCAGUCAGAUUCUGGUGAAUCUGCGAAUUCUGCUGUAUUUCUC [A18U A35G U41A A77U]: 0.14. The result for UAACAGGGGGCCACAGCUGAAGCGUUCACGUCGCGGUCCCUGUCAGAUUCUGGUGAAUCCGCGAAUUCUGCUGUAUAUCCC [A18U A35G C37U U60C U80C] reads 0.32; that for UAACAGGGGGCCACAGCUGAAGCGUUCGCGUCGCAGCCCCUGUCAGAUUCUGGUGAAUCUGCGAAUUCUGCUGUAUGUUUC [A18U A28G A77G C79U], 0.11. In the case of UAACAGGGGGCCACAGCUGAAGCGUUCACGUCGCGGCCCCUGUCAGACUCAGGUGAAUCUGCGAAUUCUGCUGUAUAUCUC [A18U A35G U48C U51A], the self-cleavage was found to be 0.48.

Turning to UAACAGGGGGCCACAGCUGAAGCGUUCUCGUCGCAGCCCCUGUCAGAUUCCGGUGAGUCCGCGAAUUCUGCUGUAUGUCUC [A18U A28U U51C A57G U60C A77G], the self-cleavage is 0.15. The same measure for UAACAGGGGGCCACAGCUGAAGCGUUCUCGUCGCAGCCCCUGUCAGAUUCUGGCGAAUCUGCGAGUUCUGCUGUAUAUCUC [A18U A28U U54C A65G]: 0.11; for UAACAGGGGGCCACAGCUGAAGCGUUCUCGUCGCAGCCCCUGUCAGAUUCUGGUGAAUCUGCGAAUUCUGCUGUAUGGCUC [A18U A28U A77G U78G]: 0.15. The result for UAACAGGGGGCCACAGCUGAAGCGUUCCCGUCGCAGCCCCUGUCAGAUUCUGGUGAAUCUGCGAAUUCUGCAGUAUAUCUC [A18U A28C U72A] reads 0.15.

UAACAGGGGGCCACAGCUGAAGCGUUCACGUCGCCGCCCCUGUCAGAUUCUGGUGAAUCUGCGAAUUCUGCCGUAUAUCUC [A18U A35C U72C]: the self-cleavage came out at 0.14. The same measure for UAACAGGGGGCCACAGCUGAAGCGUUCGCGUCGCAGCCCCUGUCAGAUUCUGGUGAAUCUGCGAAUUCUGUUGUAUAUCUC [A18U A28G C71U]: 0.29; for UAACAGGGGGCCACAGCUGAAGCGUUCGCGUCCCAGCCCCAGUCAGAUUCUGGUGAAUCUGCGAAUUCUGCUGAGUAUCUC [A18U A28G G33C U41A U74A A75G]: 0.06.

Regarding UAACAGGGGGCCACAGCUGAAGCGUUCACGUCGCUGCCCCUGCCAGAUUCUGGCGAAUCUGCGAAUUCUGCUGCAUAUCUC [A18U A35U U43C U54C U74C], the self-cleavage came out at 0.05. As to UAACAGGGGGCCACAGCUGAAGCGUUCGCGUCGCAGCCCCGGUCAGAUUCUGGUGAAUCUGCGAAUUCUGCUGUAUAUCUC [A18U A28G U41G], the self-cleavage was determined as 0.25.

Turning to UAACAGGGGGCCACAGCUGAAGCGUUCGCGUCGCGGACCCUGUCAGAUUCUGGUGAAUCUACGAAUCCUGCUGUAUAUCUC [A18U A28G A35G C37A G61A U67C], the self-cleavage came out at 0.06. The same measure for UAACAGGGGGCCACAGCUGAAGCGUUCACGUCGCGGCCCCUGUCAGAUUCGGGUGAAUCUGCGAAUUCUGCUGUAUAUCUC [A18U A35G U51G]: 0.87; for UAACAGGGGGCCACAGCUGAAGCGUUCACGUCGCUGCCCCUGUCAGAUUCUGGUGAAUCUGCGAAUUCUGCUGUAUUUCUC [A18U A35U A77U]: 0.1. Regarding UAACAGGGGGCCACAGCUGAAGCGUUCUCGUCGCAGCCCCUGUCAGAUUCUGGUGAAUCUGCGAAUUCUGCAGUAUAUCUC [A18U A28U U72A], the self-cleavage is 0.18. For the variant UAACAGGGGGCCACAGCUGAAGCGUUCGCGUCGCAGCCCCUGUCAGAUUCCGGUGAAUCUGCGAAUUCUGCUGUAUGUCUC [A18U A28G U51C A77G], the self-cleavage was found to be 0.31. Turning to UAACAGGGGGCCACAGCUGAAGCGUUCGCGUCACAGCCCCUGACAGAUUCUGGUGAAUCAGCGAAUUCUGCUGUAUAUCUC [A18U A28G G33A U43A U60A], the self-cleavage turned out to be 0.14.

The values above are taken from the RNAGym collection of RNA variant scans (doi:10.1093/nar/gkz1192).
